Assay results published in ChEMBL document CHEMBL1201862, “PubChem BioAssay data set” (2004).
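Exposure lasted 48 hours, with cells grown in 96-well plates and compounds tested at five concentrations. GI50 is the concentration that inhibits growth by half.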 Active and inactive are the calls of the source. No stated cut-off is given here; in the data, active = GI50 up to about 1.1 µM and inactive = higher.

tested on: NCI-H322M; assay: NCI-60 cell line screen, 48 h

Row | Structure (SMILES) | GI50
1 | COC(=O)C1C(O)C(C)C(O)C(C)(O)/C=C\C=C(C)C(=O)Nc2c(C)c(OC(C)=O)c3c(c2O)C(=O)C(C)=C2OCOC(=C23)C(C)=CC(C)(O)C(O)C(C)C1OC(C)=O (stereo not drawn) | inactive: 29.4 µM
2 | O=C1CSC(c2ccc(Cl)cc2)N1c1ccc(Oc2ccc(Cl)cc2)c(Cl)c1 (stereo not drawn) | inactive: 15.1 µM
3 | C=C1C(=O)C23CC1C[C@H](OC(C)=O)C2C1(C)C(OC(C)=O)C[C@H](O)C(C)(C)[C@H]1C(O)[C@@H]3OC(C)=O (stereo partly drawn) | inactive: 19.6 µM
4 | Cc1ccc2nc3n(c2c1)C(c1c(F)cccc1F)SC3 (stereo not drawn) | inactive: > 100 µM
5 | Cc1cc(C)nc(NS(=O)(=O)c2ccc(NC(=O)c3ccc4nc5ccccc5c(Nc5ccc(S(=O)(=O)Nc6nc(C)cc(C)n6)cc5)c4c3)cc2)n1 | inactive: 59.3 µM
6 | COC(=N)C1(C#N)NC(c2ccsc2)C(C#N)(C#N)NC1c1ccsc1 (stereo not drawn) | inactive: > 100 µM
7 | CC(=O)O[C@H]1C[C@H](O[C@H]2[C@@H](O)C[C@H](O[C@H]3[C@@H](O)C[C@H](O[C@H]4CC[C@@]5(C)[C@H](CC[C@@H]6[C@@H]5C[C@@H](O)[C@]5(C)[C@@H](C7=CC(=O)OC7)CC[C@]65O)C4)O[C@@H]3C)O[C@@H]2C)O[C@H](C)[C@H]1O[C@@H]1O[C@H](CO)[C@@H](O)[C@H](O)[C@H]1O [LANATOSIDE C] | active: 0.0532 µM
8 | c1ccc(/N=c2/[nH]c3ccccc3s/c2=N/c2ccccc2)cc1 | inactive: > 100 µM
9 | c1ccc2c(c1)N=C(c1cccc3ccccc13)CC(c1cccc3ccccc13)S2 (stereo not drawn) | inactive: 13.8 µM
10 | Cc1cc(=O)cc2sc3c(C)cccc3nc1-2 | inactive: > 100 µM
11 | O=C(O)CC(Cc1ccc2c(c1)OCO2)C(=O)O (stereo not drawn) | inactive: > 100 µM
12 | Cc1ccc(C)c(NC(=O)C(=O)Nn2c(S)nc3ccccc3c2=O)c1 | inactive: > 100 µM
13 | COC(=O)C1=C(C[S+]([O-])c2ccc([N+](=O)[O-])cc2[N+](=O)[O-])ON(C)C1c1ccccc1 (stereo not drawn) | inactive: > 100 µM
14 | COc1cc(C2S/C(=C/c3ccccc3)C(=O)N2c2cccc([N+](=O)[O-])c2)cc(OC)c1OC (stereo not drawn) | inactive: > 100 µM
15 | CCOc1cc(/C=C/C=C/c2ccc(N(C)C)cc2)[s+]c2ccccc12 | inactive: > 100 µM
16 | COc1ccc2nc3ccccc3c(NCCCCCCN(CCCl)CCCl)c2c1 | active: 0.167 µM
17 | COc1ccc2cc(/C=N/NC(=O)Nc3ccccc3)ccc2c1 | inactive: > 100 µM
18 | CC#CS(=O)(=O)c1ccccc1 | inactive: 19.9 µM
19 | CC1=NC(C)(C)[N+]([O-])=C1 | inactive: > 10 µM
20 | N#C/C(=C\c1cccc(O)c1O)C(N)=O | inactive: 42.7 µM
21 | CN(C)c1ccc(C2CC(=O)CC(c3ccc(N(C)C)cc3)C23C(=O)NC(=S)NC3=O)cc1 (stereo not drawn) | inactive: > 100 µM
22 | CCC1(O)C=CC(=O)C=C1 | inactive: 39.2 µM

Row | Structure (SMILES) | GI50
23 | O=C1C=C/C(=C/[C@H]2SSC=C[C@]23C=CC(=O)C3)C1 | inactive: 29 µM
24 | CCSc1cc(C(=O)OC)c2n(c1=O)CCCC2 | inactive: > 100 µM
25 | C=CC[C@@]1(C(=O)OC)[C@H](Sc2ccccc2)C1(C)C | inactive: > 100 µM
26 | CO/N=C(\C)c1cccc(Nc2nc3ccccc3c3occc23)c1 | inactive: 13.6 µM
27 | CCOP(=O)(OCC)/C(C#N)=C/c1cccn1C(C)C | inactive: > 100 µM
28 | COC(=O)N/N=C/c1oc(-c2ccccc2)c(-c2ccccc2)c1[N+](=O)[O-] | inactive: > 100 µM
29 | C=CCn1c(=O)c(C)cn(/C(=C/C(=O)OCC)C(=O)OCC)c1=O | inactive: 63.8 µM
30 | Cc1ccc(S(=O)(=O)N(CC(O)COc2ccccc2)c2c(F)c(F)cc(F)c2F)cc1 (stereo not drawn) | inactive: 29.6 µM
31 | CCn1c(SCc2nnc(Nc3ccccc3)s2)nc2ccccc2c1=O | inactive: 2.75 µM
32 | NC(=O)C(=CNC(=S)Nc1ccc(Cl)c(Cl)c1)C(N)=O | inactive: > 100 µM
33 | O=C1c2ccccc2-c2ccc(/N=N/c3c(O)ccc4ccccc34)cc21 | inactive: > 100 µM
34 | CCN(CC)c1ccc2cc(C(N)=S)c(=N)oc2c1 | inactive: > 100 µM
35 | C=CCCC(=O)N1CCC(C(=O)OCC)C1=O (stereo not drawn) | inactive: > 100 µM
36 | O=C(/C=C/c1ccc([N+](=O)[O-])o1)N1CCN(Cc2ccccc2)CC1 | inactive: 11 µM
37 | COC(=O)C1C2C=CC(C2)N1[C@@H](C)c1ccccc1 (stereo partly drawn) | inactive: > 100 µM
38 | Clc1ccc(Cc2nc3cc(Cl)c(Cl)cc3n2CC2CCCN3CCCCC23)cc1 (stereo not drawn) | inactive: 12.7 µM
39 | O=C(OCc1ccccc1)N1CCNCCNCC1 | inactive: > 100 µM
40 | COC(=O)CCCCCOS(=O)(=O)c1ccc(C)cc1 | inactive: > 10 µM
41 | O=c1oc(=O)c2oc3ccccc3oc1=2 | inactive: > 100 µM
42 | CC(C)(C)OC(=O)NC(Cc1ccc(O)cn1)C(N)=O (stereo not drawn) | inactive: > 100 µM
43 | COc1ccc(Cc2cc(OC)c(OC)c(OC)c2)cc1O | active: < 0.0266 µM
44 | COC(=O)C12OCC34C(CC5C(C)C6=CC(=O)OC6=CC5(C)C3C(O)C1O)OC(=O)C(OC(C)=O)C24 (stereo not drawn) | inactive: 19 µM

Row | Structure (SMILES) | GI50
45 | O=C(N/N=C/c1ccccc1)c1c(F)c(F)c(F)c(F)c1F | inactive: > 100 µM
46 | COc1ccc(/C(Cl)=C(\C=O)c2ccc(OC)cc2)cc1 | inactive: 91.8 µM
47 | CC(=O)NC1C(Sc2ncn(C3OC(CO)C(O)C(O)C3NC(C)=O)n2)OC(CO)C(O)C1O (stereo not drawn) | inactive: > 100 µM
48 | CN(C)c1c([O-])c(=[N+](C)C)c1=O | inactive: > 100 µM
49 | CC(C)/C=N\N1C(N)=C(C#N)C(C#N)(C#N)C1C(C)C (stereo not drawn) | inactive: > 100 µM
50 | CCCCS(=N)(=O)CC[C@H](N)C(=O)O (stereo partly drawn) [BUTHIONINE SULFOXIME] | inactive: > 5000 µM
51 | COC1CCN(N(C)C)O1 (stereo not drawn) | inactive: > 100 µM
52 | CCOC(=O)/C=C(\C(=O)OCC)n1ccc(=O)n(Cc2cnnn2CCCCOC(C)=O)c1=O | inactive: 18.3 µM
53 | CSc1nc(Nc2ccccc2Cl)c2c(N)nn(C)c2n1 | inactive: > 100 µM
54 | C=CCn1c(-c2ccc(/N=N/Nc3ccc(-c4n[nH]c(=S)n4CC=C)cc3)cc2)n[nH]c1=S | inactive: 4.41 µM
55 | CCOC(=O)C1=C(C)N(Cc2ccccc2)C2(O)C(OC)CC(=O)C3C(=O)N(c4ccccc4)C(=O)C132 (stereo not drawn) | inactive: 15.3 µM
56 | Nc1ccc(C(=O)N/C(=C\c2cccc([N+](=O)[O-])c2)c2nc3cc(Cl)ccc3[nH]2)cc1 | inactive: > 100 µM
57 | CC(=O)Nc1cc(N(CCOS(C)(=O)=O)CCOS(C)(=O)=O)ccc1N=O | inactive: > 100 µM
58 | Cc1cc(N(C)C)ccc1/N=N/c1ccc2ncccc2c1 | inactive: 67.8 µM
59 | Oc1ccc(SCc2cc(O)ccc2O)cc1 | inactive: 31.7 µM
60 | OC1CCSc2ccccc21 (stereo not drawn) | inactive: > 100 µM
61 | C/C(CCn1[nH]c(=O)ccc1=O)=N\N=C(N)N | inactive: > 100 µM
62 | NC(=O)NN=C(CS)CS | inactive: 17.8 µM
63 | CC1CCC(=O)C(C(=O)CC2CC(=O)NC(=O)C2)C1 (stereo not drawn) | inactive: > 100 µM
64 | CSc1ccccc1P(CCP(c1ccccc1SC)c1ccccc1SC)c1ccccc1SC | inactive: 12.3 µM
65 | CNC(=S)c1nnsc1N | inactive: > 100 µM
66 | COc1cc(OC)c(OC)cc1/C=C/c1cnnc2ccccc12 | inactive: > 10 µM

Row | Structure (SMILES) | GI50
67 | O=C1CN(c2ccccc2)Cc2nc(Cl)ccc2N1 | inactive: > 100 µM
68 | CC1C[C@@H]2C(=O)NC(=O)[C@@H]2c2c1c1ccccc1n2C (stereo partly drawn) | inactive: > 100 µM
69 | CN1C2(c3ccccc3)C(C(=O)c3ccccc3)=C(C(=O)c3ccccc3)C1(c1ccccc1)c1c(-c3ccccc3)sc(-c3ccccc3)c12 | inactive: > 100 µM
70 | COC(=O)[C@]12CCC(C)(C)C[C@H]1C1=CC[C@@H]3[C@@]4(C)CC[C@H](OC5OC(CO)C(O)C(O)C5OC5OC(CO)C(O)C(O)C5O)C(C)(C)[C@@H]4CC[C@@]3(C)[C@]1(C)CC2 (stereo partly drawn) | inactive: 6.19 µM
71 | C=C1C[C@@H]2CC[C@@]34CC5O[C@H]6C(O[C@H]7CC[C@H](CC(=O)O[C@@H]8[C@@H](C)[C@@H]9O[C@@H]%10C[C@]%11(C[C@@H]%12O[C@]%13(C[C@H](C)[C@@H]%14O[C@@H]%15CC(C(O)CO)O[C@@H]%15C[C@@H]%14O%13)C[C@H](C)[C@@H]%12O%11)O[C@@H]%10C[C@@H]9O[C@H]8CC8O[C@@H](CC[C@@H]1O2)C[C@@H](C)C8(O)CO)O[C@@H]7[C@@H]6O3)[C@H]5O4 (stereo partly drawn) | active: > 0.662 µM
72 | CC1=NN(c2nc(N)nc(COc3ccc(N)cc3)n2)C(C)(C)C1 | inactive: > 100 µM
73 | C/C(Cl)=N/OC(=O)Nc1ccc(S(N)(=O)=O)c(C)c1 | inactive: 30.8 µM
74 | O=C(OC(/C=C/c1ccccc1)P1(=O)N(Cc2ccccc2)[C@@H]2CCCC[C@H]2N1Cc1ccccc1)c1ccccc1 (stereo partly drawn) | inactive: 6.03 µM
75 | CCCCCCCCOc1ccc(/C=C/C2=[N+](CCO)CCO2)cc1 | inactive: 10.6 µM
76 | COC(=O)c1c(C#C[Si](C)(C)C)c(C#C[Si](C)(C)C)c(C#C[Si](C)(C)C)c(C#C[Si](C)(C)C)c1C(=O)OC | inactive: > 100 µM
77 | COc1ccc(C(=O)CC2=Nc3nnc(CCCCCCCc4nnc5n4C(=O)C(CC(=O)c4ccc(OC)cc4)=N5)n3C2=O)cc1 | inactive: > 100 µM
78 | CCN(CC)CCc1c2c(nc3ccccc13)C(=O)c1cccnc1C2=O | inactive: 2.1 µM
79 | O=C(O)C1=Cc2cccc3cccc(c23)C1=O | inactive: > 100 µM
80 | C=CCN1CCC(c2cc(C(=O)OCC)[nH]c2-c2cc(C)no2)C1=O (stereo not drawn) | inactive: 76.4 µM
81 | COC(=O)C1=C(C)N(NC(N)=O)C2(N)N(NC(N)=O)C(C)=C(C(=O)OC)C12C(=O)OC (stereo not drawn) | inactive: > 100 µM
82 | Fc1cccc(/C=N/C23CC4CC(CC(C4)C2)C3)c1 | inactive: > 100 µM
83 | Oc1cccc(-c2cc(O)c3cc4c(cc3n2)OCO4)c1 | inactive: 3.32 µM
84 | Cc1ccc([N+](=O)[O-])cc1S(=O)(=O)Nc1ccc(C2=NN(c3ccc([N+](=O)[O-])cc3[N+](=O)[O-])C(c3cccs3)C2)cc1 (stereo not drawn) | inactive: 24.1 µM
85 | COc1ccc2[nH]c3c(C)c4ccncc4c(C)c3c2c1 | active: 0.198 µM
86 | Cc1ccccc1C(=O)c1ccccc1O | inactive: > 100 µM
87 | CCCC/C=C1\CCC(CN2CCCCC2)C1=O (stereo not drawn) | inactive: 32.5 µM
88 | NNC(=O)c1ccc(OCc2nc3ccccc3[nH]2)cc1 | inactive: > 100 µM
